One molecule from PMC11752402 (ACS Nano, 2024) can be followed below.

For the test, the target named is recombinant human TLR4 (human, UniProt O00206 part only). The experiment in a line: single-molecule force spectroscopy.
Chain of UniProt O00206 (O00206 24-631): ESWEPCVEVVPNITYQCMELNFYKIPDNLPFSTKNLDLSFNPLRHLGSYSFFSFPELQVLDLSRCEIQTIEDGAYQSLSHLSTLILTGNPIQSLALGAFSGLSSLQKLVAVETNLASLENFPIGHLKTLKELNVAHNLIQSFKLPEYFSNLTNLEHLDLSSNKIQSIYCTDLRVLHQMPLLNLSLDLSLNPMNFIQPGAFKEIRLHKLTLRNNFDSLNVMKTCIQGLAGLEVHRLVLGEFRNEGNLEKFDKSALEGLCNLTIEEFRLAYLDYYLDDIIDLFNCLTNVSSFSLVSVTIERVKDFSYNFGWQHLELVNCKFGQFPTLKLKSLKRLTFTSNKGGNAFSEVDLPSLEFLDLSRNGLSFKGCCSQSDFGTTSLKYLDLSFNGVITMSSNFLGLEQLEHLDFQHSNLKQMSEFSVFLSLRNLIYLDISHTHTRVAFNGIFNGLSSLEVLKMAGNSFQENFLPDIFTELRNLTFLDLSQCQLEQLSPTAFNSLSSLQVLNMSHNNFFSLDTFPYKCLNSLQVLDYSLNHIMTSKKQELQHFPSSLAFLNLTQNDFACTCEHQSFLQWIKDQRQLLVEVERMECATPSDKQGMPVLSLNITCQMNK

B1: Staphylococcus aureus iron-regulated surface determinant protein B (IsdB) (natural protein)
chain: not shown
One may read the koff as the first-order rate constant of dissociation. For B1, the koff was determined as 6.52 ± 1.44 s⁻¹.
